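Test compounds were applied to cells in 96-well plates for 48 hours at 5 doses. At the GI50, growth is halved. The concentration for full growth arrest is given as TGI.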

This passage reports GI50 and TGI results from PubChem BioAssay (NCI).

This assay concerns NCI-H322M lung. The assay is described as follows: NCI-60 cell line screen, 48 h.

Consider `CCCCCCCCCCCCCCCCCCCC(=O)NCCc1c[nH]c2ccc(OC(=O)NOCCOCCOCCOCCOCCOCCOCCOCCOCCOCCOCCOCCOCCOCCOCCOCCOCCOCCOCCOCCOCCOCCOC)cc12`, for which the GI50 was 15.3 µM and the TGI was found to be 32.5 µM.
On the same counts, the results for `O=C(Cn1c(-c2ccccc2)nc2ccccc21)N=Nc1c(O)[nH]c2ccc(Cl)cc12` are 14.8 µM and 29.4 µM.
On the same counts, the results for `Clc1ccc(-c2nc3c4c(-c5ccccc5)c(-c5ccccc5)n(Cc5ccccc5)c4ncn3n2)cc1` are 27.5 µM and > 100 µM.
For `COc1cnc2c(c1)C(=O)c1c-2n(CCCNC(C)C)c(=O)c2cc(OC)c(OC)cc12`, in that order: 4.38 µM and 19.5 µM.
